Data as given in PubChem BioAssay AID1656 (Sanford-Burnham Center for Chemical Genomics, 2009).
The other results are listed elsewhere or left out. These are further read-outs of the screen, such as a control signal, another cell line or another target. No call is given for them. Compounds called inactive in the main read-out are mostly missing here.

assay: oleate-induced lipid droplet accumulation in AML12 cells – imaging, high-throughput imaging, BODIPY stain, primary screen (AID 1656); settings: AML12 mouse hepatocytes, oleate lipid droplets, measured here: cell count, cytotoxicity flag, at 6.5 µM;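 also: cells counted across two imaged fields per well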
How it was run: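 Test system: AML12 mouse liver cells; schedule: overnight exposure; technique: high-content imaging of BODIPY-stained droplets and DAPI nuclei; read-out: % inhibition of corrected integrated BODIPY droplet signal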

SMILES	cell count
O=C(Cc1ccccc1)Nn1c(-c2ccccc2)nc2ccccc2c1=O	621 cells
Clc1ccc(Nc2nc(NCCN3CCOCC3)nc(N3CCOCC3)n2)cc1	326 cells
Cc1nc2ncccn2c1-c1csc(Nc2ccc(N(C)C)cc2)n1	214 cells
CCCCOc1ccccc1C(=O)N(Cc1ccco1)C1CCS(=O)(=O)C1 (stereo not drawn)	678 cells
CCCSC1=C(C#N)C(c2cccs2)C(C(=O)Nc2ccccc2)=C(C)N1 (stereo not drawn)	754 cells
COC(=O)Nc1nc(-c2ccccc2)c(C(=O)c2ccccc2)s1	272 cells
CCn1c2ccccc2c2cc(NC(=O)c3cc(OC)cc(OC)c3)ccc21	143 cells
CCOc1ccc(CCNC(=O)CS(=O)Cc2nc(-c3ccc(OC)c(OC)c3)oc2C)cc1OCC (stereo not drawn)	726 cells
COc1ccc(-n2c(=O)c3ccccc3n(CC(=O)Nc3cc(C)on3)c2=O)cc1OC	357 cells
O=C(COC(=O)CCc1ccccc1)Nc1ccc(F)cc1Cl	114 cells
O=[N+]([O-])c1cc(Cl)ccc1N1CCN(c2cccc(C(F)(F)F)c2)CC1	645 cells
Cc1cccc(OCc2ccc(C(=O)N3CCOCC3)o2)c1	97 cells
Cc1ccc(/C=C/C(=O)NCC2COc3ccccc3O2)o1 (stereo not drawn)	698 cells
CC(C)(C)NC(=O)CSc1nc2ccc(Nc3nc(N4CCOCC4)nc(N4CCOCC4)n3)cc2s1	659 cells
CCCC(=O)OCC(=O)Nc1ccccc1Sc1ccccc1	187 cells
COCCCN=C1NN=C(c2cc(C)n(Cc3ccccc3Cl)c2C)CS1	189 cells
CC1CCN(C(=O)c2ccc3c(c2NCCO)C(=O)c2ccccc2C3=O)CC1	682 cells
Cc1cccc(NC(=O)Cn2cc(C(=O)C3CC3)c3ccccc32)c1	819 cells
C/C=C/COC(=O)c1[nH]c2c(c1C)C(=O)CC(c1ccco1)C2 (stereo not drawn)	207 cells
CCOc1ccc(CCNC(=O)CS(=O)Cc2nc(-c3ccc(OC)cc3)oc2C)cc1OCC (stereo not drawn)	782 cells
Cc1ccc(S(=O)(=O)N2CCCCC2)cc1C(=O)N(C)CCOc1ccccc1	865 cells
CNc1nc(C)c(C(=O)c2ccc(Cl)cc2)s1	828 cells
COc1ccccc1/C=N\Nc1ccccc1[N+](=O)[O-]	719 cells

SMILES	cell count
COc1cc2c(cc1NC(=S)NC(=O)c1c(OC)cccc1OC)oc1ccccc12	622 cells
CN(NC(=O)c1ccccc1F)c1nc(C(F)(F)F)nc2ccccc12	226 cells
COc1ccccc1N1N=C(c2ccc([N+](=O)[O-])cc2)CC1c1ccccc1 (stereo not drawn)	778 cells
CC(C)(C)c1cc(Br)c(O)c(N=Nc2ccc(S(=O)(=O)N3CCOCC3)cc2)c1	558 cells
O=C(NCc1cccs1)c1cccnc1Cl	292 cells
CCC(C)(C)NC(=O)C(c1sccc1C)N(Cc1ccco1)C(=O)c1csnn1 (stereo not drawn)	779 cells
CCOc1ccc(CCNC(=O)c2cc(-c3ccccc3)c(N3CCOCC3)s2)cc1OCC	775 cells
COc1ccc(Cl)cc1NC(=O)CN1C(=O)NC2(CCCC2)C1=O	823 cells
COc1ccc(Cl)cc1NC(=O)CCNC(=O)OCc1ccccc1	666 cells
COc1cccc(N=Nc2c(C)[nH]n(-c3ccccc3)c2=O)c1	748 cells
CC(C)CC(C(=O)O)N1C(=O)C2C3CC(C2C1=O)C1C(c2ccccc2)c2sc(=O)[nH]c2SC31 (stereo not drawn)	164 cells
COc1ccc(C2NCCc3c2[nH]c2ccccc32)cc1COc1ccc(F)cc1 (stereo not drawn)	112 cells
COc1ccc(S(=O)(=O)N2CCN(C(=O)c3ccc([N+](=O)[O-])o3)CC2)cc1	184 cells
COc1ccc(N(Cc2cc(=O)[nH]c3ccccc23)C(C)=O)cc1	654 cells
Cc1ccc(CNC(=O)CCCc2c[nH]c3ccccc23)cc1	780 cells
CN1CC(=O)Nc2ccc([N+](=O)[O-])cc2C1=O	566 cells
COc1ccc2c(c1)C(C)=CC(C)(C)N2S(=O)(=O)c1ccc(C)cc1	158 cells
COc1ccc(/C=N/NC(=O)CCn2cnc(-c3ccccc3)c2-c2ccccc2)cc1	254 cells
O=C(N/N=C/c1ccc(Cl)cc1)c1sccc1OCc1ccc(F)cc1	249 cells
Cn1c2c(c(=O)n(C)c1=O)C(c1ccc(Cl)cc1)C(C#N)=C(N)O2 (stereo not drawn)	237 cells
CCOc1ccc(CCNC(=O)Cn2cccc2C(=O)c2ccccc2)cc1OCC	712 cells
O=C(O)CCCC(=O)Nc1ccc(Br)cc1C(=O)O	502 cells
Cc1ccc(C=Nc2ccccc2C(N)=O)s1	156 cells

SMILES	cell count
CCN1C(=O)/C(=C/C=C2/Sc3ccc4ccccc4c3N2CCO)SC1=S	598 cells
CCOc1ccc(CCNC(=O)COC(=O)c2cccnc2OCC)cc1OCC	729 cells
C=CCN(C(=O)c1csnn1)C(C(=O)NCc1ccccc1)c1ccccc1F (stereo not drawn)	786 cells
Cc1cc(NC(=O)c2sccc2C)n(-c2nc3ccccc3[nH]2)n1	716 cells
CCOc1ccc(CCNC(=O)CCNC(=O)c2ccccc2Cl)cc1OCC	708 cells
COC(C[C@@H](O)C[C@@H](O)COCc1ccccc1)OC	718 cells
CCOc1ccc(NS(=O)(=O)c2ccc(C(=O)N3CCC3)cc2)cc1	728 cells
CN(C1=C(NC(=O)c2ccc(Cl)cc2)C(=O)c2ccccc2C1=O)c1ccccc1	668 cells
CCOc1ccc(CCNC(=O)COC(=O)c2c(C)nn(-c3ccccc3)c2C)cc1OCC	847 cells
CCOc1ccc(CCNC(=O)c2cccs2)cc1OCC	880 cells
C/C(=N\Nc1nc(-c2ccccc2)cs1)c1cccs1	659 cells
CCOC(=O)c1ccc(N2CCN(c3ccccc3F)CC2)c(NC(=O)Nc2ccccc2)c1	605 cells
COc1ccc(OC)c(Nc2cc(-c3ccccc3)nc(N)n2)c1	287 cells
c1ccc(Oc2cccc(CN3CCCCC3)c2)cc1	773 cells
O=C(NCc1ccc(C(=O)O)cc1)OCc1ccccc1	695 cells
CCOc1ccc(-c2nonc2NC(=O)c2ccco2)cc1	665 cells
CC1CCCN(C2=C(NS(=O)(=O)c3ccc(Cl)cc3)C(=O)c3ccccc3C2=O)C1 (stereo not drawn)	529 cells
Cc1ccc(-c2cc(C(=O)N/N=C/c3c(C)nn(-c4ccccc4)c3C)n[nH]2)s1	235 cells
COc1cccc(/C(C)=N/NC(=O)Cc2c(C)[nH][nH]c2=O)c1	614 cells
CCc1ccc(NC(=O)CSc2nnc(C)c(=O)n2N)cc1	655 cells
Cc1cc(N2CCOCC2)n2nc(C)c(-c3ccccc3Cl)c2n1	829 cells
CCOc1ccc(NC(=O)CN(C)c2ccc(S(=O)(=O)N(C(C)C)C(C)C)cn2)cc1OCC	734 cells
